System: FAP-B binding to fibronectin
Parameters: species or system human

Substance: FAP-A269-292: Synthesized peptide of amino acids 269-292 of FAP-A, a conserved fibronectin binding region (GNRQRWFVVWLGTSNDPVDKVAAK)
- inhibition of FAP-B binding to fibronectin: completely blocked the binding of FAP-B to fibronectin

Reference: US6638518B1 (priority 1999, dated 2003)
